Assay results as given in US11866449B2, “Crystalline polymorphs of a muscarinic acetylcholine receptor agonist” (NSC Therapeutics GmbH, priority 2016, dated 2024).

Key:
[1] = test system: 3×Tg-AD mice; conditions: cited from earlier work
[2] = Compound A Form II once daily for 4 days
[3] = test system: healthy elderly subjects; assay: Separate Phase I study in healthy elderly subjects; type: in vivo, man; conditions: healthy elderly subjects (age 65-80 years) of both sexes
[4] = Long-term stability in bulk for the API at 25° C./60% RH
[5] = test system: patients with xerostomia associated with primary or secondary Sjögren's syndrome; assay: Phase II clinical trial in xerostomia associated with Sjögren's syndrome; type: in vivo, human
Protocol: A Phase II clinical trial was conducted to evaluate the tolerability, safety and efficacy of Compound A Form III (NGX267) at single doses of 10 mg, 15 mg and 20 mg (as capsules according to Example 30) compared with placebo when given to patients with xerostomia associated with primary or secondary Sjögren's syndrome. A total of 26 patients were recruited, and randomized to four treatment groups in four treatment periods at three study centers. […] On each study day, whole mouth salivary flow rates were measured as a primary parameter. As a secondary study parameter, subjective measurements of salivary gland dysfunction were assessed 2, 4, 6, 12, 14, and 24 hours post-dose using an 8-item visual analog scale. As an additional exploratory parameter, a standard Schirmer test was conducted bilaterally at baseline and 2, 12, 14, and 24 hours post-dose to assess tear production.

[6] = Solid-state stability / transformation of crystal forms on storage, humidity and heating; type: physicochemical
Protocol: Compound A Crystalline Form II (0.4631 g; crystallized from acetonitrile) was placed in a desiccator at 95% relative humidity (saturated solution of Na2HPO4) at room temperature for one week (FIG. 15A). […] (very broad) and 133.9° C. […] X-ray powder diffraction confirmed that the material so obtained was crystalline:
a) During heating at 90° C. of Compound A crystal Form I (crystallized from ethyl acetate) the characteristic peaks of Form I decreased (particularly noticeable in solid-state CP/MAS ^13C NMR spectrum in the regions 14-15, 26-29, 44-46 and 63-66 ppm), whereas those of Compound A crystal Form II increased [diagnostic peaks (15.4, 14.7), (29.1, 25.9), (64.0, 65.7) ppm]. Compound A crystal Form I was completely converted to Compound A crystal Form II in 4 hrs.
b) Crystalline Form I/III Compound A, crystallized from water, was heated at 90° C. for 75 min.
c) Crystalline Form II Compound A was heated at 70° C. for 10 h, then left at room temperature overnight. Solid-state CP/MAS ^13C NMR of the product confirmed that crystalline Form II was unchanged.
a) Crystalline Form II Compound A was left at room temperature for 90 days.
Crystalline Form I Compound A (0.4149 g, crystallized from ethyl acetate) was placed in a desiccator at 95% relative humidity (saturated solution of Na2HPO4) at room temperature for one week.
The evidence of partial conversion of the anhydrous to the hydrate is based on the increased water content observed on repeated handling.

[7] = test system: man; conditions: single oral dose; 1-45 mg tested
[8] = Aqueous solubility; type: physicochemical; conditions: thermodynamic from solid; API; deionized water, rotated for 2 days at room temperature
Protocol: Aqueous solubility was carried out by preparing 50 mg of API Monohydrate (Form III) in 2 ml of deionized water. The sample was prepared in triplicate and the preparations were rotated for 2 days at room temperature. Following rotation, the mixture remained undisturbed for 3 hours allowing any undissolved API to settle. The supernatant was filtered into scintillation vials using a 4 mm 0.45 microM PTFE filter. A 1 in 40 dilution was made by pipetting 25 microliter into 975 microliter of sample solvent. The resulting dilution was placed into vials for HPLC analysis.

[9] = Hygroscopicity (dynamic moisture uptake); type: physicochemical; conditions: API
Protocol: For the APIs the water uptake was evaluated in a dynamic moisture uptake experiment (SGA-100 Symmetric Vapor Sorption Analyzer, VTI Corporation). The dynamic moisture uptake profile for API (Form III) was completed in 10% increments with sorption from 40% to 90% RH, followed by desorption to 2% RH in 10% increments from 90% to 10% and 1% increments from 10% to 2%. The dynamic moisture uptake profile of API (Form II) was completed in 10% increments with sorption from 40% to 90% RH followed by desorption to 10%.

[10] = test system: AD patients and schizophrenics; conditions: cited from earlier work
[11] = between 6 and 24 hours post-dose, all three doses (10, 15, 20 mg), Form III

Structure (SMILES): CC[C@@H]1SC2(CCN(C)CC2)NC1=O [Compound A, (S)-2-ethyl-8-methyl-1-thia-4,8-diazaspiro[4.5]decane-3-one]
- A and tau pathologies in the hippocampus and cortex [1]: reduced
- Spatial memory [1]: improve
- Steady-state conditions [2]: attained on the third day of dosing
- Maximum tolerated oral dose [3]: 20 mg
- Purity by HPLC (achiral) on long-term storage [4]: 100%
- Purity by HPLC (chiral) on long-term storage [4]: 99.9-100%
- Specification under long-term conditions ([4]; clinical batch (cGMP), monohydrate Form III, bulk, 0, 3, 6, 9, 12, 18 and 24 month time point): met specification
- Water content on long-term storage ([4]; listed as NGX267): 7.2-8%
- Subjective measures of salivary gland dysfunction (8-item visual analog scale) ([5]; 15 mg and 20 mg doses): significant improvement compared with placebo for all 8 items
- Tear production (Schirmer test) ([5]; 15 mg dose): increased tear production significantly over placebo
- Safety and tolerability ([5]; Compound A Form III capsules, single doses of 10 mg, 15 mg and 20 mg): safe, well tolerated
- Effectiveness with respect to xerostomia ([5]; Compound A Form III, 10, 15 and 20 mg): effective
- Tear production (Schirmer test), overall treatment effect ([5]; all doses, exploratory parameter): no overall treatment effect
- Maximum saliva flow versus placebo [5, 11]: significantly greater than that observed with placebo treatment
- Saliva production versus placebo [5, 11]: significantly greater than that observed with placebo treatment
- Relationship between dose and saliva production ([5]; in the first 6 hours and in the first 24 hours): linear relationship between dose and saliva production

Structure (SMILES): CC[C@@H]1SC2(CCN(C)CC2)NC1=O [Form I, (S)-2-ethyl-8-methyl-1-thia-4,8-diazaspiro[4.5]decane-3-one]
- Interconversion of monohydrate Forms I and III [6]: does not convert to Form III
- Time to complete conversion to Form II on heating ([6]; 90° C., crystallized from ethyl acetate): 4 h
- Crystal form after storage at 95% relative humidity ([6]; room temperature, one week): still crystalline Form I

Structure (SMILES): CC[C@@H]1SC2(CCN(C)CC2)NC1=O [Form II, (S)-2-ethyl-8-methyl-1-thia-4,8-diazaspiro[4.5]decane-3-one]
- Behaviour upon equilibration at elevated humidity [6]: conversion to the monohydrate Form III occurs
- Behaviour when stored at ambient room temperature and humidity [6]: begins to convert to the hydrate form
- Crystal form after heating at 70° C. ([6]; 10 h, then room temperature overnight): unchanged
- Maximum tolerated dose [7]: 35 mg

Structure (SMILES): CC[C@@H]1SC2(CCN(C)CC2)NC1=O [Form III, (S)-2-ethyl-8-methyl-1-thia-4,8-diazaspiro[4.5]decane-3-one]
- Interconversion of monohydrate Forms I and III [6]: does not convert to Form I
- Stability under various storage conditions [6]: stable under various storage conditions for at least two years
- Purity by HPLC (achiral) on long-term storage [4]: 100%
- Purity by HPLC (chiral) on long-term storage [4]: 99.9-100%
- Water content on long-term storage [4]: 7.6-8%
- Stability under long-term conditions ([4]; cGMP API): highly stable
- solubility at 2 days [8]: 5300 µg/mL (≈ 24.7 mM)
- Water adsorption ([9]; 8-90% relative humidity): no water was adsorbed
- Relative humidity at which Form III begins to dehydrate ([9]; desorption): below 7%
- Relative humidity at which virtually complete water loss is achieved ([9]; desorption): 2%
- Hygroscopicity ([9]; dynamic moisture uptake): non-hygroscopic
- Water desorption ([9]; relative humidity above 7%): No water desorption was detected

Structure (SMILES): CCCCCCOc1nsnc1C1=CCCN(C)C1 [Xanomeline]
- Safety margin with respect to cholinergic adverse events ([10]; all clinical studies): unacceptable safety margin
- Behavioral disturbances in AD patients ([10]; in vivo): improvements
- Effect in schizophrenics ([10]; in vivo): efficacy in schizophrenics

Values after ≈ are worked out from the molar mass of the structure shown. Where two headings read alike, the source gives them in different places.
